Measured values reported in the supplement of paper PMC9446081.
In all, about 39,000 compounds went through this assay and about 220 (0.56%) showed activity. This is one part of the list.

system: Escherichia coli K-12 BW25113; assay: relative growth (OD600 normalised to plate interquartile mean) (fraction); higher = less growth inhibition, active = 0.2 or less; conditions: 50 µM; LB; incubation time: overnight (16-24 h)
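Further: static incubation at 37 °C against the wild-type strain, values averaged over two biological replicates.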

Q: Which relative growth does the source give for `CCn1cc(C(=O)O)c(=O)c2ccc(C)nc21` here?
A: inactive: 1.02

Q: `CC(C)CC#Cc1ccc2c(c1)O[C@H](CN(C)C(=O)Cc1ccccn1)[C@H](C)CN([C@@H](C)CO)S2(=O)=O` was tested. Which relative growth did it give?
A: inactive: 1.03

Q: `O=C(NCC[C@@H]1CC[C@@H](NS(=O)(=O)c2cccc(F)c2)[C@@H](CO)O1)C1CC1` was tested. Which relative growth did it give?
A: inactive: 1.02

Q: `C[C@@H]1CCCCO[C@@H](CN(C)C(=O)Nc2ccc(F)cc2)[C@@H](C)CN([C@H](C)CO)C(=O)c2cc(NC(=O)Nc3ccccc3)ccc2O1` was tested. Which relative growth did it give?
A: inactive: 0.99

Q: How did the relative growth turn out when `C[C@@H]1CCCCO[C@@H](CN(C)S(=O)(=O)c2ccc(F)cc2)[C@@H](C)CN([C@H](C)CO)C(=O)c2cc(NC(=O)CCCCCC(=O)Nc3ccccc3N)ccc2O1` was run?
A: inactive: 1.03

Q: How did the relative growth turn out when `C[C@@H](O)C#Cc1ccc2c(c1)O[C@H](CN(C)C(=O)CN(C)C)[C@@H](C)CN([C@@H](C)CO)S2(=O)=O` was run?
A: inactive: 0.985

Q: How did the relative growth turn out when `COc1ccccc1CNC(=O)C[C@H]1C[C@H]2c3cc(NC(=O)NC4CCCC4)ccc3O[C@H]2[C@H](CO)O1` was run?
A: inactive: 1.03

Q: `COC1CC(OC2C(C)OC(OC3C(C)=CCC4CC(CC5(C=CC(C)C(C6CCCCC6)O5)O4)OC(=O)C4C=C(C)C(O)C5OCC(=CC=CC3C)C45O)CC2OC)OC(C)C1O` (stereo not given) was tested. Which relative growth did it give?
A: inactive: 0.906

Q: Which relative growth does the source give for `COc1ccc(CN(C)C[C@H]2OCCCC[C@@H](C)Oc3ccc(NC(=O)c4ccccc4)cc3C(=O)N([C@H](C)CO)C[C@H]2C)cc1` here?
A: inactive: 1.01

Q: Which relative growth does the source give for `Cc1noc(C)c1NC(=O)N(C)C[C@@H]1OCCCC[C@H](C)Oc2ccc(NC(=O)c3ccccc3)cc2C(=O)N([C@@H](C)CO)C[C@H]1C` here?
A: inactive: 0.964

Q: How did the relative growth turn out when `C[C@H]1CN([C@@H](C)CO)C(=O)c2cccc(NS(=O)(=O)c3ccccc3)c2O[C@@H]1CN(C)C(=O)Nc1cccc2ccccc12` was run?
A: inactive: 0.99

Q: With `Cc1ccc(S(=O)(=O)N(C)C[C@H]2Oc3ccc(NC(=O)Nc4ccc(C(F)(F)F)cc4)cc3CC(=O)N([C@H](C)CO)C[C@H]2C)cc1` as the molecule, how does the relative growth read?
A: inactive: 1.03

Q: Which relative growth does the source give for `Cc1noc(C)c1S(=O)(=O)N(C)C[C@H]1Oc2ccc(NC(=O)Nc3ccccc3)cc2CC(=O)N([C@@H](C)CO)C[C@H]1C` here?
A: inactive: 1.04

Q: With `C[C@@H]1CCCCO[C@H](CN(C)C(=O)CCCN(C)C)[C@H](C)CN([C@@H](C)CO)C(=O)c2cc(NC(=O)Nc3cccc4ccccc34)ccc2O1` as the molecule, how does the relative growth read?
A: inactive: 0.977

Q: Which relative growth does the source give for `COc1cccc(-c2ccc3c(c2)O[C@@H](CN(C)Cc2cncnc2)[C@H](C)CN([C@@H](C)CO)S3(=O)=O)c1` here?
A: inactive: 1.02

Q: Which relative growth does the source give for `Cc1ccc(S(=O)(=O)Nc2ccc3c(c2)C(=O)N([C@@H](C)CO)C[C@H](C)[C@@H](CN(C)C(=O)C2CCCCC2)OCCCC[C@@H](C)O3)cc1` here?
A: inactive: 0.993

Q: `C[C@@H]1CN([C@H](C)CO)S(=O)(=O)c2ccc(C#CCN(C)C)cc2O[C@H]1CN(C)Cc1cccnc1` was tested. Which relative growth did it give?
A: inactive: 1.01

Q: How did the relative growth turn out when `C[C@@H]1CN([C@H](C)CO)C(=O)c2cc(NC(=O)c3ccncc3)ccc2O[C@@H](C)CCCCO[C@@H]1CN(C)CC1CCCCC1` was run?
A: inactive: 0.978

Q: `Cc1noc(C)c1NC(=O)Nc1ccc2c(c1)C(=O)N([C@@H](C)CO)C[C@H](C)[C@@H](CN(C)Cc1ccc(C(F)(F)F)cc1)OCCCC[C@H](C)O2` was tested. Which relative growth did it give?
A: inactive: 1.01

Q: How did the relative growth turn out when `COc1ccc2c3c([nH]c2c1)[C@@H](CO)N(C[C@]13CCN(CC1)S(=O)(=O)C)C(=O)Nc1ccc(cc1)F` was run?
A: inactive: 1.02

Q: `C[C@@H]1CN([C@H](C)CO)C(=O)c2cc(NC(=O)Nc3cccc4ccccc34)ccc2O[C@@H](C)CCCCO[C@H]1CN(C)C(=O)c1ccccc1` was tested. Which relative growth did it give?
A: inactive: 1.04

Q: With `O=C(C[C@@H]1C[C@@H]2c3cc(NS(=O)(=O)c4ccc(F)cc4)ccc3O[C@@H]2[C@@H](CO)O1)NCc1cccc(F)c1` as the molecule, how does the relative growth read?
A: inactive: 1

Q: Which relative growth does the source give for `C[C@H]1CN([C@@H](C)CO)C(=O)c2cccc(NC(=O)c3cnccn3)c2O[C@@H]1CN(C)Cc1ccccc1` here?
A: inactive: 0.994

Q: Which relative growth does the source give for `C[C@@H]1CCCCO[C@@H](CN(C)C(=O)Nc2ccc(C(F)(F)F)cc2)[C@@H](C)CN([C@@H](C)CO)C(=O)c2cc(NC(=O)C3CCCCC3)ccc2O1` here?
A: inactive: 1.02

Q: With `O=C(O)c1cc(O)c2c(c1)C(C1c3cc(C(=O)O)cc(O)c3C(=O)c3c(OC4OC(CO)C(O)C(O)C4O)cccc31)c1cccc(OC3OC(CO)C(O)C(O)C3O)c1C2=O` (stereo not given) as the molecule, how does the relative growth read?
A: inactive: 1.01

Q: How did the relative growth turn out when `COc1ccc2cc(CCC(C)=O)ccc2c1` was run?
A: inactive: 1.18

Q: `C[C@H]1CN([C@@H](C)CO)C(=O)CCCn2cc(nn2)CO[C@@H]1CN(C)S(=O)(=O)c1ccc(Oc2ccccc2)nc1` was tested. Which relative growth did it give?
A: inactive: 0.944

Q: For `C[C@@H]1CCCCO[C@H](CN(C)C)[C@H](C)CN([C@H](C)CO)C(=O)c2cc(NC(=O)Nc3ccc(C(F)(F)F)cc3)ccc2O1`, which relative growth is on record?
A: inactive: 0.908

Q: How did the relative growth turn out when `COc1ccc(CN(C)C[C@@H]2Oc3ccc(NC(=O)C4CC4)cc3CC(=O)N([C@H](C)CO)C[C@H]2C)cc1` was run?
A: inactive: 0.952

Q: With `Cc1ccc(S(=O)(=O)N(C)C[C@H]2OCCCC[C@H](C)Oc3ccc(NC(=O)CCCCCC(=O)Nc4ccccc4N)cc3C(=O)N([C@@H](C)CO)C[C@@H]2C)cc1` as the molecule, how does the relative growth read?
A: inactive: 1.01

Q: `C[C@@H]1CN([C@H](C)CO)C(=O)c2cccc(NS(=O)(=O)c3cccs3)c2O[C@H]1CN(C)S(=O)(=O)c1cn(C)cn1` was tested. Which relative growth did it give?
A: inactive: 1

Q: `COCCOC(=O)N1C(=O)[C@@]2(c3cc(C#CC4(O)CCCCCC4)ccc31)[C@H](C(=O)N1CCN(c3ncccn3)CC1)[C@H]1C(=O)O[C@H](c3ccccc3)[C@H](c3ccccc3)N1[C@@H]2c1ccccc1OCCO` was tested. Which relative growth did it give?
A: inactive: 1.04

Q: For `O=C(O)CCCCc1ccc(F)cc1`, which relative growth is on record?
A: inactive: 1.01

Q: How did the relative growth turn out when `C[C@@H]1CN([C@@H](C)CO)C(=O)Cc2cc(NS(=O)(=O)c3cccs3)ccc2O[C@H]1CN(C)CC1CC1` was run?
A: inactive: 1.01

Q: Which relative growth does the source give for `COc1cc(Nc2ncc3c(n2)-c2ccc(Cl)cc2C(c2c(F)cccc2OC)=NC3)ccc1C(=O)O` here?
A: inactive: 1.01

Q: For `COc1ccc(NC(=O)Nc2ccc3c(c2)[C@H]2C[C@H](CC(=O)NCc4ccccn4)O[C@@H](CO)[C@H]2O3)cc1`, which relative growth is on record?
A: inactive: 0.989

Q: `COc1cccc([C@@H](NC(=O)C2CCN(Cc3ccc(Oc4ccccc4)cc3)CC2)c2ccccn2)c1` was tested. Which relative growth did it give?
A: inactive: 1.01

Q: With `CC(=O)Nc1nnc(-c2ccno2)o1` as the molecule, how does the relative growth read?
A: inactive: 1.01

Q: Which relative growth does the source give for `CN(C)S(=O)(=O)N1CCC[C@H](C(N)=O)C1` here?
A: inactive: 0.99

Q: With `C[C@@H]1CCCCO[C@@H](CN(C)Cc2ccncc2)[C@@H](C)CN([C@@H](C)CO)C(=O)c2cc(NS(C)(=O)=O)ccc2O1` as the molecule, how does the relative growth read?
A: inactive: 1.03

Q: With `CNC[C@H]1Oc2ccc(NS(=O)(=O)c3cn(C)cn3)cc2C(=O)N([C@@H](C)CO)C[C@@H]1C` as the molecule, how does the relative growth read?
A: inactive: 0.982

Q: With `Cn1cnc(CO)n1` as the molecule, how does the relative growth read?
A: inactive: 0.991

Q: For `Cc1noc(C)c1NC(=O)N(C)C[C@H]1Oc2ccc(NC(=O)Nc3cccc4ccccc34)cc2C(=O)N([C@@H](C)CO)C[C@@H]1C`, which relative growth is on record?
A: inactive: 0.983

Q: How did the relative growth turn out when `CC(C)NC(=O)N(C)C[C@H]1Oc2c(NC(=O)C3CCOCC3)cccc2C(=O)N([C@@H](C)CO)C[C@H]1C` was run?
A: inactive: 1

Q: Which relative growth does the source give for `COc1ccc(S(=O)(=O)N(C)C[C@H]2Oc3ccc(NS(=O)(=O)c4c(C)noc4C)cc3C(=O)N([C@H](C)CO)C[C@H]2C)cc1` here?
A: inactive: 1.01

Q: For `CC(C)NC(=O)Nc1ccc2c(c1)CC(=O)N([C@H](C)CO)C[C@H](C)[C@@H](CN(C)S(=O)(=O)c1cn(C)cn1)O2`, which relative growth is on record?
A: inactive: 0.998

Q: Which relative growth does the source give for `COc1ccc2c3c([nH]c2c1)[C@@H](CO)N(CC1CCCCC1)C[C@]13CCN(CC1)C(=O)NC1CCCC1` here?
A: inactive: 0.983

Q: How did the relative growth turn out when `Cc1ccc(-c2ccc3c(c2)O[C@H](CN(C)C(=O)NC(C)C)[C@@H](C)CN([C@H](C)CO)S3(=O)=O)cc1` was run?
A: inactive: 1.05

Q: With `Cc1ccc(S(=O)(=O)Nc2ccc3c(c2)C(=O)N([C@@H](C)CO)C[C@@H](C)[C@H](CN(C)C(=O)Nc2cccc4ccccc24)OCCCC[C@H](C)O3)cc1` as the molecule, how does the relative growth read?
A: inactive: 1.02

Q: Which relative growth does the source give for `COCC(=O)N(C)C[C@H]1Oc2cc(-c3ccc(OC)cc3)ccc2S(=O)(=O)N([C@@H](C)CO)C[C@H]1C` here?
A: inactive: 1

Q: `Cc1ccc(S(=O)(=O)N(C)C[C@H]2Oc3c(NC(=O)Nc4cccc5ccccc45)cccc3C(=O)N([C@H](C)CO)C[C@H]2C)cc1` was tested. Which relative growth did it give?
A: inactive: 1

Q: `COc1ccc(NC(=O)N(C)C[C@H]2Oc3c(NC(=O)c4cc(C)nn4C)cccc3C(=O)N([C@@H](C)CO)C[C@@H]2C)cc1` was tested. Which relative growth did it give?
A: inactive: 1.01

Q: Which relative growth does the source give for `Cc1noc(C)c1S(=O)(=O)Nc1ccc2c(c1)C(=O)N([C@@H](C)CO)C[C@@H](C)[C@H](CN(C)C)OCCCC[C@H](C)O2` here?
A: inactive: 1

Q: How did the relative growth turn out when `NNC(=O)c1cccc(C(=O)NO)c1` was run?
A: inactive: 0.972

Q: With `C[C@H]1CN([C@@H](C)CO)C(=O)c2cc(NC(=O)Nc3cccc4ccccc34)ccc2O[C@@H]1CN(C)Cc1ccc2c(c1)OCO2` as the molecule, how does the relative growth read?
A: inactive: 0.997

Q: Which relative growth does the source give for `CCc1ccc(OC[C@@H](O)CN)cc1` here?
A: inactive: 1

Q: With `CC(C)(/N=N/C(C)(C)C(=N)N)C(=N)N` as the molecule, how does the relative growth read?
A: inactive: 0.99

Q: Which relative growth does the source give for `O=C(C[C@H]1CC[C@@H](NS(=O)(=O)c2ccc(F)cc2)[C@H](CO)O1)NCc1ccc(Cl)c(Cl)c1` here?
A: inactive: 1

Q: For `C[C@@H]1CN([C@@H](C)CO)C(=O)Cc2cc(NC(=O)Nc3cccc4ccccc34)ccc2O[C@@H]1CN(C)S(=O)(=O)c1ccc(Cl)cc1`, which relative growth is on record?
A: inactive: 1.05

Q: With `O=C(/C=C/c1ccc(O)c(O)c1)O[C@@H]1C[C@](OC(=O)/C=C/c2ccc(O)c(O)c2)(C(=O)O)C[C@@H](OC(=O)/C=C/c2ccc(O)c(O)c2)[C@H]1O` as the molecule, how does the relative growth read?
A: inactive: 0.961
